Assay results taken from PubChem BioAssay (Tox21).
The shares of active, inactive and inconclusive entries below differ from those in the screen. For some of these results: Potencies beside an inconclusive call are fits to weak or partial responses and may not hold up. Activity calls are given as the source filed them. Unless noted, calls come from the whole dose curve; as a rule, active = well fitted curve in the direction sought with a large enough effect in the repeat runs; inconclusive = weak or mixed curves; inactive = no such curve, though single readings can be large; an effect the other way counts as inactive or inconclusive.

Columns and labels:
[1] = qHTS assay to identify small molecule agonists of the farnesoid-X-receptor (FXR) signaling pathway - cell viability counter screen (AID 743218); conditions: FXR-bla HEK293T viability, CellTiter-Glo luminescence, 16 h; viability change, negative = cytotoxic: at 62.6 µM (top of the series) unless noted; note: potency is the fitted concentration of half-maximal effect; nearly all actives have a fitted effect of over 45% in size
Summary of the method: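 Readout: CellTiter-Glo luminescence, 30 min RT, multiplexed after the FXR-bla FRET reading. HEK 293T FXR-UAS-bla cells received compound 5 h post-plating and were incubated 16 h at 37 C.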

[2] = qHTS assay to identify small molecule antagonists of the farnesoid-X-receptor (FXR) signaling pathway - cell viability counter screen (AID 743221; active = well fitted cell-killing curve with a large enough effect in the repeat runs, not every such curve was filed as active; inconclusive = weak or mixed curves, or effect the other way; inactive = no such curve, though single readings can be large or run the other way; note: potency is the fitted concentration of half-maximal effect; nearly all actives have a fitted effect of over 50% in size); conditions: FXR-bla HEK293T viability, CellTiter-Glo luminescence, 16 h; activity change, negative = cytotoxicity: at 62.6 µM (top of the series)
Summary of the method: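 Luminescence from CellTiter-Glo measures cytotoxicity in GeneBLAzer FXR-UAS-bla HEK 293T cells. Cells were exposed to compounds with 50 uM chenodeoxycholic acid (final) for 16 h at 37 C, in wells also used for the reporter readout.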

[3] = molecular target: Vitamin D3 receptor (Homo sapiens) (UniProt P11473); test: qHTS assay to identify small molecule antagonists of the vitamin D receptor (VDR) signaling pathway (AID 743223; active = well fitted inhibition curve with a large enough effect in the signal ratio in the repeat runs, not every such curve was filed as active; inconclusive = weak or mixed curves, or effect the other way; inactive = no such curve, though single readings can be large or run the other way; the % refers to the signal ratio; note: potency is the fitted concentration of half-maximal effect; for activity change, negative = inhibition: % is set by controls: 0 for no effect and ±100 for the full control effect); conditions: VDR-UAS-bla HEK293T, beta-lactamase FRET ratio, 16 h; activity change, negative = inhibition: at 61 µM (top of the series) unless noted
Chain of UniProt P11473 (P11473 whole entry, looked up): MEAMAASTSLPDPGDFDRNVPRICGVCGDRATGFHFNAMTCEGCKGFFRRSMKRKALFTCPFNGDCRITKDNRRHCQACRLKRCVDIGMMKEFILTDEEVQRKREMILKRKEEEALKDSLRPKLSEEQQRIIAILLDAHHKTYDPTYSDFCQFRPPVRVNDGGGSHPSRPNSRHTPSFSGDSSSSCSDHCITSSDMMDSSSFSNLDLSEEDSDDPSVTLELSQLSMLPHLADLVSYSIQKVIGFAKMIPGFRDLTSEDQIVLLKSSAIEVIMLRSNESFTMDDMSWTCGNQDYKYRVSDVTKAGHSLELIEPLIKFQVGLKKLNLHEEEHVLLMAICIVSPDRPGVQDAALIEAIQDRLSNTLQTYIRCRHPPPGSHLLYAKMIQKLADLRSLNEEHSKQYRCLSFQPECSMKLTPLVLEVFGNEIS
Summary of the method: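 Antagonist mode uses 1alpha,25-dihydroxyvitamin D3 at 3 nM final as stimulus. VDR-bla cells receive compounds in DMSO, incubate 16 h at 37C, then a beta-lactamase FRET substrate for 2 h at room temperature before fluorescence measurement.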

[4] = qHTS assay to identify small molecule agonists of the vitamin D receptor (VDR) signaling pathway - cell viability counter screen (AID 743224); conditions: VDR-bla HEK293T viability, CellTiter-Glo luminescence, 16 h; activity change, negative = cytotoxicity: at 62.6 µM (top of the series); note: potency is the fitted concentration of half-maximal effect; nearly all actives have a fitted effect of over 50% in size
Summary of the method: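 In parallel with the bla FRET readout, cytotoxicity toward VDR-bla cells after 16 h compound exposure was assessed by CellTiter-Glo, with luminescence recorded after a 30 min room-temperature incubation.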

[5] = qHTS assay to identify small molecule antagonists of the vitamin D receptor (VDR) signaling pathway - cell viability counter screen (AID 743225); conditions: VDR-bla HEK293T viability, CellTiter-Glo luminescence, 16 h; viability change, negative = cytotoxic: at 61 µM (top of the series) unless noted; note: potency is the fitted concentration of half-maximal effect; nearly all actives have a fitted effect of over 50% in size
Summary of the method: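 Read-out: CellTiter-Glo luminescence measured 30 min after reagent addition at room temperature. Cells were VDR-bla HEK 293T exposed 16 h at 37C, 5% CO2, to compound with 3 nM final calcitriol agonist.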

[6] = qHTS assay to identify small molecule agonists of the endoplasmic reticulum stress response signaling pathway (AID 1159516; active = well fitted activation curve with a large enough effect in the signal ratio in the repeat runs, not every such curve was filed as active; inconclusive = weak or mixed curves, or effect the other way; the % refers to the signal ratio; note: potency is the fitted concentration of half-maximal effect); conditions: ESRE-bla HeLa, ER stress beta-lactamase reporter, 5 h; activation: at 61 µM (top of the series) unless noted
Summary of the method: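 Beta-lactamase expression from the ER stress response element in HeLa reporter cells is quantified with the LiveBLAzer B/G FRET substrate, read at 405 nm excitation after 2 hr at room temperature, following 5 hr compound treatment at 37 C.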

[7] = qHTS assay to identify small molecule antagonists of the retinoid-related orphan receptor gamma (ROR-gamma) signaling pathway - cell viability counter screen (AID 1159520); note: potency is the fitted concentration of half-maximal effect; nearly all actives have a fitted effect of over 50% in size
Summary of the method: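 Tet-on ROR gamma CHO cells (1,000/well) were plated 4 hr, given compounds in DMSO for 2 hr at 37 C, then induced with 1 uM final doxycycline for 16 hr. Viability was read as ATP by CellTiter-Glo luminescence after 30 min.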

[8] = qHTS assay to identify small molecule agonists of the AP-1 signaling pathway (AID 1159526; calls by dose curve; note: % is set by controls: 0 for no effect and ±100 for the full control effect); conditions: ME-180 (cervical carcinoma) AP-1-bla reporter, beta-lactamase FRET ratio, 5 h; activation: at 76.8 µM (top of the series) unless noted
[9] = molecular target: Retinoic acid receptor RXR-alpha (Homo sapiens) (UniProt P19793); test: qHTS assay to identify small molecule agonists of the RXR signaling pathway (AID 1159527; calls by dose curve; note: potency is the fitted concentration of half-maximal effect; nearly all actives have a fitted effect of over 35% in size); conditions: HEK293T RXRa-UAS-bla, beta-lactamase ratio, 16 h; activation: at 76.8 µM (top of the series) unless noted
Chain of UniProt P19793 (P19793 whole entry, looked up): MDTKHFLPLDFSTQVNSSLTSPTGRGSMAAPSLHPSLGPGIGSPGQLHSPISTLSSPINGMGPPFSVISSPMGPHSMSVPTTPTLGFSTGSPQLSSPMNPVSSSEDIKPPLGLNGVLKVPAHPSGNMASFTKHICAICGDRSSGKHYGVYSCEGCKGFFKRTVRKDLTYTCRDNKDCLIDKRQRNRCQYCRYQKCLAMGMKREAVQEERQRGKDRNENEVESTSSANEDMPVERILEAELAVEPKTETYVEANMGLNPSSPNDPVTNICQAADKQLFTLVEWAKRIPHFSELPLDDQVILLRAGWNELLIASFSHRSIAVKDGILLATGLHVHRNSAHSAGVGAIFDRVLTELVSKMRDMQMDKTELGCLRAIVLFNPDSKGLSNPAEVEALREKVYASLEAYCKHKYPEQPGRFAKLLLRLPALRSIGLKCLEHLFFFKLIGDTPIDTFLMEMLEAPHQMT
Summary of the method: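 Read-out: beta-lactamase FRET ratio (405 nm excitation, 460 and 530 nm emission) after 2 hr substrate loading at room temperature. Cells were RXR-alpha-UAS-bla HEK 293T treated with compounds for 16 hr in 2% charcoal-stripped FBS medium.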

[10] = qHTS assay to identify small molecule agonists of the RXR signaling pathway - cell viability counter screen (AID 1159529)
Summary of the method: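 HEK 293T RXRa-bla cells, 2% CS-FBS; 5 h settle; cpd 16 h 37 C, 5% CO2; CellTiter-Glo 30 min RT, luminescence. Tetraoctyl ammonium bromide as positive control.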

[11] = qHTS assay to identify small molecule antagonists of the retinoid acid receptor (RAR) signaling pathway - cell viability counter screen (AID 1159551); note: potency is the fitted concentration of half-maximal effect; nearly all actives have a fitted effect of over 35% in size
Summary of the method: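 Viability of C3RL4 cells is quantified from ATP by luminescence after 6 h treatment at 37 C with compounds and 1 uM retinol.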

[12] = qHTS assay to identify small molecule antagonists of the peroxisome proliferator-activated receptor delta (PPARd) signaling pathway - cell viability counter screen (AID 743213); conditions: PPARd-bla HEK293H viability, CellTiter-Glo luminescence, 17 h; viability change, negative = cytotoxic: at 62 µM (top of the series) unless noted
Summary of the method: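 HEK293H cells with the PPARd UAS-bla reporter, co-treated 17 h at 37 C with compounds and L165041 (300 nM final), were lysed with CellTiter-Glo. Luminescence indicated viable cell content.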

[13] = molecular target: Peroxisome proliferator-activated receptor delta (Homo sapiens) (UniProt Q03181); test: qHTS assay to identify small molecule antagonists of the peroxisome proliferator-activated receptor delta (PPARd) signaling pathway (AID 743215; active = well fitted inhibition curve with a large enough effect in the signal ratio in the repeat runs, not every such curve was filed as active; inconclusive = weak or mixed curves, or effect the other way; inactive = no such curve, though single readings can be large or run the other way; the % refers to the signal ratio;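 note: cells stimulated with agonist L165041 at 300 nM final during compound exposure; % is set by controls: 0 for no effect and ±100 for the full control effect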); conditions: HEK293H PPARd-UAS-bla, beta-lactamase FRET ratio, antagonist, 17 h; ratio activity, negative = inhibition: at 62 µM (top of the series) unless noted
Chain of UniProt Q03181 (Q03181 whole entry, looked up): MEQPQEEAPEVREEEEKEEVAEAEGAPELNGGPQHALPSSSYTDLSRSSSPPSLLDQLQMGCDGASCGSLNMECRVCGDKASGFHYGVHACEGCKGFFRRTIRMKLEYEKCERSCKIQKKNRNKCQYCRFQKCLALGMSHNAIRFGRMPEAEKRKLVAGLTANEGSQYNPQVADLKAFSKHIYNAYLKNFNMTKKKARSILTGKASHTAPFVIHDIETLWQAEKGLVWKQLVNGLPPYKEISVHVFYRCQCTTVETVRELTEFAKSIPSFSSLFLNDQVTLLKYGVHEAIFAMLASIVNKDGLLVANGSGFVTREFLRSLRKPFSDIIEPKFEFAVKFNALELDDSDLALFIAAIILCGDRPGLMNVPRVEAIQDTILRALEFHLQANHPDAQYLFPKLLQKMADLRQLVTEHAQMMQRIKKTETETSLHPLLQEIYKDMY
Summary of the method: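 Fluorescence from cleaved LiveBLAzer B/G FRET substrate (2 h, room temperature) reports PPARd-driven beta-lactamase in HEK293H UAS-bla cells. Cells had been treated 17 h at 37 C with compound plus 300 nM final L165041.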

[14] = molecular target: Bile acid receptor (Homo sapiens) (UniProt Q96RI1); test: qHTS assay to identify small molecule antagonists of the farnesoid-X-receptor (FXR) signaling pathway (AID 743217; active = well fitted inhibition curve with a large enough effect in the signal ratio in the repeat runs, not every such curve was filed as active; inconclusive = weak or mixed curves, or effect the other way; inactive = no such curve, though single readings can be large or run the other way; the % refers to the signal ratio; note: % is set by controls: 0 for no effect and ±100 for the full control effect); conditions: HEK293T FXR-UAS-bla, beta-lactamase ratio, CDCA-stimulated, 16 h; activity change, negative = inhibition: at 62.6 µM (top of the series) unless noted
Chain of UniProt Q96RI1 (Q96RI1 whole entry, looked up): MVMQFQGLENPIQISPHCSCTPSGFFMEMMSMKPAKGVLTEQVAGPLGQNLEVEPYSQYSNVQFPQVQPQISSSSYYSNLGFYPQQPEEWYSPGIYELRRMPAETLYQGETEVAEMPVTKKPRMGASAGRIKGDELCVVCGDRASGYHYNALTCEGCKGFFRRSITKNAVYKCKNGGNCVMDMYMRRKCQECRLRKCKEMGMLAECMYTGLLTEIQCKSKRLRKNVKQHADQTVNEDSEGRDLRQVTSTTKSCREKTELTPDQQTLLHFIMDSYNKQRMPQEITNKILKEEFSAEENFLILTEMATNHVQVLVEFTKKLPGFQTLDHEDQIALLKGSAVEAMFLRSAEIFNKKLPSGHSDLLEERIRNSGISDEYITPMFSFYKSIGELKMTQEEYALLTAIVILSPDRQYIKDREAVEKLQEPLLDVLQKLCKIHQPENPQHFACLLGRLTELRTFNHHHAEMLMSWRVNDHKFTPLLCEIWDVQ
Summary of the method: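 FRET fluorescence after 2 h room-temperature LiveBLAzer loading gives the readout. Prior step: FXR-bla HEK 293T cells, seeded and incubated 5 h, received test compounds plus 50 uM final CDCA for 16 h at 37 °C.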
Tags give direction and shape of the fitted curve or compound fluorescence and quenching.

COc1cc(Nc2c(C#N)cnc3cc(OCCCN4CCN(C)CC4)c(OC)cc23)c(Cl)cc1Cl
inconclusive: Potency [3] 26.8 µM [rising, single point] | Potency [4] 23.7 µM [cytotoxic, partial curve, poor fit] | Potency [6] 1.9 µM [falling, full curve] | Potency [7] 29.8 µM [cytotoxic] | activation [8] -8.98% [at 35.3 µM] | Potency [9] 1.69 µM [rising, full curve, poor fit]
active: Potency [1] 13.3 µM | Potency [2] 26.6 µM | Potency [5] 19 µM | Potency [10] 8.49 µM

CC(=O)OCCN(CCOC(C)=O)c1ccc(N=Nc2ccc([N+](=O)[O-])cc2C#N)cc1
active: Potency [11] 48.6 µM
inconclusive: activity change, negative = inhibition [3] 3.76% | Potency [6] 54.9 µM [falling, single point] | Potency [7] 34.4 µM [cytotoxic, partial curve] | Potency [9] 0.692 µM [inhibitor, full curve]

CN1CCN(Cc2cc(-c3ccc4[nH]c(=O)oc4c3)co2)[C@@H](c2ccc(F)cc2)C1
inactive: Potency [13] | Potency [14] | Potency [3] | Potency [6]
inconclusive: Potency [12] 18.8 µM [cytotoxic, partial curve] | Potency [1] 33.4 µM [cytotoxic, partial curve, poor fit] | Potency [4] 37.4 µM [cytotoxic, partial curve] | Potency [7] 23.4 µM [cytotoxic, single point] | activation [8] 10.9% | Potency [9] 18.8 µM [inhibitor, partial curve]
